According to article PMC5836133:
This is one part of the list. At the low end of the ranking the order means little.

What follows are sequences tested on T1, GST-NbGlk1(82-244) (assay: protein-binding microarray). Conditions: NbGlk1 is a Golden2-like transcription factor of Nicotiana benthamiana; high values mean tight binding; most listed sequences are background and not binding sites; double strand, one strand shown.
T1 sequence: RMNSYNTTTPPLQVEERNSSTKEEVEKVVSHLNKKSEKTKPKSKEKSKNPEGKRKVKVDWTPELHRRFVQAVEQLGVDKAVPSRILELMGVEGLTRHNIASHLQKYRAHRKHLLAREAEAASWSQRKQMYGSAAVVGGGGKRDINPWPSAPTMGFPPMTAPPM
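Also: rank-based score ranging −0.5 to +0.5 with E above 0.45 taken as significant binding.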

| Sequence | binding signal [E-score] |
| --- | --- |
| ACAACCCT | -0.196 |
| ACCCGGCG | -0.243 |
| AGAAGTTA | 0.0625 |
| AATGTGAA | 0.182 |
| AGGTTCGA | -0.00234 |
| CAAACTCC | -0.175 |
| ATCTCCAT | 0.335 |
| AAGAGGGC | -0.243 |
| AATATGGC | 0.176 |
| AGGACCAG | -0.295 |
| ATAACTAA | -0.0585 |
| AGTCTTCC | -0.00747 |
| ATACGGGG | -0.0135 |
| ACGGCCCC | -0.108 |
| ATCGAAGC | 0.095 |
| ACCTACCT | -0.278 |
| ACGGGCAA | -0.0399 |
| AATGCGGG | -0.0897 |
| ACCTTCAT | 0.0193 |
| AGGGTGCC | -0.33 |
| AGTATTTA | 0.0837 |
| ACAACTAC | 0.101 |
| ATCGCGCC | 0.283 |
| ACGGGGTG | -0.198 |
| AAGACTAT | -0.0294 |

| Sequence | binding signal [E-score] |
| --- | --- |
| ACTACTCT | 0.0252 |
| AAATCGCG | 0.425 |
| ACCTCACT | -0.179 |
| ACTGGTGG | -0.23 |
| ACAAAACC | 0.0863 |
| AGCCGCGA | -0.00167 |
| ACACCGTC | -0.21 |
| AGAGGCAG | -0.241 |
| ATGAAGGA | 0.082 |
| ATAATAAC | 0.129 |
| ACGTAAGG | -0.146 |
| ACAGGGAA | 0.142 |
| AGGGGAGG | -0.151 |
| ATAGAAAC | -0.0892 |
| AATTCAGA | 0.186 |
| AGTGACAG | -0.071 |
| AGCTACAT | -0.0735 |
| CACTTTCG | -0.0509 |
| AACATTGT | -0.126 |
| AACCCTAT | -0.169 |
| AGTGCAAT | 0.238 |
| ACCGATGC | -0.0953 |
| ACCAGGAA | -0.0883 |
| ACGCGCGG | -0.0389 |
| ACACCAAG | -0.162 |

| Sequence | binding signal [E-score] |
| --- | --- |
| ATTCCTGA | 0.169 |
| AAAAGAAG | -0.0861 |
| AGAATCTG | 0.479 |
| AAGCTCTG | -0.281 |
| CACCTGGC | -0.21 |
| AGTGCTAT | -0.00384 |
| ACACTTTG | -0.0137 |
| ACTCAAAA | 0.174 |
| ACGAACAC | -0.0229 |
| ACCCCGCC | -0.221 |
| ATATGGCC | -0.0757 |
| AAATGGGA | -0.0906 |
| AAAGACTC | -0.126 |
| ATTCCATA | 0.257 |
| ACTGAGAT | 0.247 |
| CACCTCCG | -0.131 |
| CAACCTAG | -0.178 |
| AAGCGATA | 0.157 |
| AACACCCA | -0.08 |
| AAGACCTA | -0.147 |
| AGTGCGCG | -0.0343 |
| AATGCCGA | -0.0346 |
| AGCTTGAC | -0.215 |
| ACAGCAAC | -0.0327 |
| AAATCCAC | 0.43 |

| Sequence | binding signal [E-score] |
| --- | --- |
| CAAATGGG | -0.0083 |
| ACCAGCAG | -0.202 |
| ATGCCGAA | 0.0265 |
| CACTAGGG | -0.132 |
| CAATGGGA | -0.00746 |
| AATATTCC | 0.341 |
| AACTTGTA | 0.0657 |
| CACTGGCC | -0.223 |
| ACCAATCT | 0.171 |
| AATAGTTC | -0.0151 |
| ATCCCCGA | 0.284 |
| AGAGCGCG | -0.0775 |
| ATAGTTAG | 0.115 |
| AGGCCTGG | -0.223 |
| CAGACACA | -0.123 |
| AGTGTCTG | -0.049 |
| ACTGCAGT | -0.102 |
| ACCTGCAT | 0.0605 |
| AACATTTC | 0.176 |
| AAGGAGGA | -0.205 |
| ATCCCCGC | 0.2 |
| AAGTGAAC | -0.219 |
| ACTACAGG | -0.104 |
| ACCAGTCG | -0.255 |
| ATACCCGC | 0.082 |

| Sequence | binding signal [E-score] |
| --- | --- |
| ACTTGGCG | -0.0276 |
| ACTAAGCC | -0.124 |
| ATTATTTC | 0.219 |
| CAGCGTTC | -0.283 |
| AATTGATG | -0.00418 |
| AATGGTGG | -0.136 |
| ACGTGACA | -0.0339 |
| ATCGAGCG | 0.00861 |
| ACTGCCGC | -0.123 |
| ACTGCTAT | -0.0283 |
| ATGCGACC | -0.224 |
| ACACGGAC | -0.102 |
| AACAGCAG | -0.145 |
| CACCCACA | -0.123 |
| AGGGGAAT | 0.32 |
| AACAACCA | -0.191 |
| AGAGAAAT | 0.241 |
| ATCGTCTC | 0.173 |
| AAGGCCGT | -0.302 |
| AACAAGTA | 0.00994 |
| ATTGCAGC | 0.12 |
| AATTAGTA | 0.109 |
| CAAATGAG | 0.003 |
| ATCTGGAC | 0.346 |
| ATATGTCA | 0.14 |

| Sequence | binding signal [E-score] |
| --- | --- |
| AGGCCTGA | -0.195 |
| ACTAAACG | 0.0337 |
| ATCTTCAG | 0.3 |
| ACCCGAAC | -0.221 |
| AGCTCTAG | -0.145 |
| AGGGCGAA | -0.209 |
| ATCGTCGA | 0.221 |
| ACAGGAAT | 0.217 |
| CACTTGCG | -0.105 |
| AGTCGACA | 0.0557 |
| AACCTAAT | 0.0548 |
| CAAGAAGA | -0.0827 |
| AGCTTGGG | -0.206 |
| AGCGCGAG | -0.0785 |
| ATACCAGG | -0.0165 |
| ATCCTCAG | 0.231 |
| ACGTAACG | 0.0139 |
| ATGTTAGA | 0.121 |
| CAAAAAAC | 0.182 |
| ACGCCTCC | -0.188 |
| ACGAAGTA | 0.00245 |
| AGGCACGG | -0.196 |
| ACTTATCA | -0.0734 |
| ATGTGACG | -0.121 |
| AGGATAGG | -0.0549 |

| Sequence | binding signal [E-score] |
| --- | --- |
| CAACCCGG | -0.178 |
| AACATTAA | 0.101 |
| AGGCTGTG | -0.255 |
| ACAAACCC | -0.171 |
| AGTAAAGG | -0.0993 |
| AATCACGA | 0.339 |
| AATTAGCG | -0.0295 |
| AAGAACAT | 0.00421 |
| AGCCCGTA | -0.156 |
| AGATCAAC | 0.106 |
| AACTACTT | 0.0621 |
| CAGATACG | 0.391 |
| AACCGGTC | -0.168 |
| ATATTACA | 0.281 |
| ATTTCACA | 0.304 |
| CAAGTATG | 0.101 |
| AATGACGG | -0.0554 |
| AGATCAAT | 0.175 |
| AGCAGGAC | -0.165 |
| AGGTCGAT | -0.119 |
| AATTAACC | -0.0987 |
| ATTTGACA | 0.157 |
